# Reference: the supplement of paper PMC3334620
# The full ranking holds about 33,000 sequences; the median of “E-score (-0.5 to 0.5)” is about -0.012, and the highest 2% start at about 0.29. This is one part of the list.
# Molecular target: T1, Ybr033w (UniProt P38073)
# T1 sequence: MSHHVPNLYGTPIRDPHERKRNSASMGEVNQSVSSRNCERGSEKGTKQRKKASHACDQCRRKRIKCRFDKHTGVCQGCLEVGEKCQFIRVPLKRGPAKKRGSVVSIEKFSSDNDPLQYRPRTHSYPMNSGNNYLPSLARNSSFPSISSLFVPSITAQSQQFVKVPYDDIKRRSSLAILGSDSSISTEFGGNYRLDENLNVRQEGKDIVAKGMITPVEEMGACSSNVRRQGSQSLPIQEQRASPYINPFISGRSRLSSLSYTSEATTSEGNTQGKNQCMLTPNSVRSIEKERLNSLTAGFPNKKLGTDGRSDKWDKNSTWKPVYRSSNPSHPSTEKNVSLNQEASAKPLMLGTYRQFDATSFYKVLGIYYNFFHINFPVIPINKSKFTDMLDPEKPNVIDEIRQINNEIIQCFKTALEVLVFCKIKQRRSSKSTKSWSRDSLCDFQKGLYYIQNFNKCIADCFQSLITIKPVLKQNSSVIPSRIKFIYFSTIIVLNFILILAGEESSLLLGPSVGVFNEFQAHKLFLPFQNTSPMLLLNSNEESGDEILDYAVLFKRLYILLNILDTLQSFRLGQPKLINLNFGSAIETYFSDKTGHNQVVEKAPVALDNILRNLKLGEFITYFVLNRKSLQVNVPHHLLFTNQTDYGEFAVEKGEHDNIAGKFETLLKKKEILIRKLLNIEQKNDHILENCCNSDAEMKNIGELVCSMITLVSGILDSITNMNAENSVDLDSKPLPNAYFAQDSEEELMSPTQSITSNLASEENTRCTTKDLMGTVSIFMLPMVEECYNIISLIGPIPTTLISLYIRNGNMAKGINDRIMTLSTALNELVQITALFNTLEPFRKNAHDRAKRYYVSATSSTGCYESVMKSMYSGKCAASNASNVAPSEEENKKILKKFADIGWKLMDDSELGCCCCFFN
# Test: PBM E-score (8-mer binding enrichment) (E-score (-0.5 to 0.5)); higher = stronger / more preferred TF binding; most listed sequences are background and not binding sites
# Details: protein concentration: 200 nM; construct: GST-full length
# Method in brief: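 Universal all-10-mer Agilent arrays, fresh or stripped once, were converted to double-stranded form by primer extension. GST-tagged yeast transcription factors from PURExpress in vitro transcription/translation, full-length or DNA-binding domain only, were applied at about 100-200 nM and detected with fluorescent anti-GST. After masliner normalisation, the Universal PBM Analysis Suite scored each ungapped eight-base word together with its reverse complement by E-score.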
row,Sequence,PBM E-score
1,GGCAAATA,0.109
2,ACACCGAC,-0.0121
3,ATGATTTA,0.253
4,GTCCCATA,-0.106
5,CAGGAGGG,-0.185
6,ACCATTCC,0.0986
7,ACGGACAG,-0.284
8,CTTTGTAA,0.24
9,AAAGAACG,0.0663
10,GAGCCGGA,-0.0129
11,AGCAAGGG,-0.0359
12,AACGTACC,0.0653
13,CGTTGGAA,0.0863
14,AGTAACCG,0.109
15,CCTCCCCA,-0.137
16,AACATTGC,0.0435
17,CGTAGGGA,-0.0324
18,AACTCAGC,-0.0812
19,CAATGAAA,0.085
20,GGGATACC,-0.294
21,ATAGTGTA,0.198
22,CACAAGAA,0.236
23,AGTTTTCA,0.123
24,AAGCTTCT,0.0905
25,AGGATGGG,-0.138

row,Sequence,PBM E-score
1,AAGCAAAC,0.117
2,ACGCGAGT,-0.0289
3,AGGTCTAG,-0.173
4,AGATATAG,0.171
5,GGTCGACA,-0.147
6,CATAGCAG,-0.217
7,ACGAGCTC,-0.23
8,GATACCAC,0.066
9,TGTCTGAA,0.133
10,ACAGAGGG,-0.12
11,CCCCAGGC,-0.192
12,ATCAACCG,0.165
13,ATTGTATC,0.251
14,CTCACGGA,-0.115
15,ACACTGCC,0.186
16,ATTGGGAC,0.0397
17,GTGAATAA,0.0956
18,AGACACAA,0.121
19,CGTAAAAA,0.212
20,AGGACCCT,-0.196
21,ATGCTTTG,-0.0128
22,ATAATTAT,0.372
23,ATAAATGC,0.0963
24,CTTGTGCC,-0.354
25,ACCTTTCT,-0.0058

row,Sequence,PBM E-score
1,CCTCTACC,-0.0288
2,GGGATTAC,-0.103
3,ATTCGGCC,-0.157
4,GTCATCCA,-0.0983
5,TATGCATA,0.0884
6,CATTTAGA,0.0917
7,ACTTTCCA,0.164
8,TGGTTAAA,0.232
9,CTCAGAGA,-0.202
10,CGCACATC,-0.0563
11,CTCTCGTC,-0.165
12,AAGGAACA,0.283
13,ATATCGTG,0.0168
14,AATGGCCG,-0.193
15,GAAGTGCC,-0.102
16,CACCCCCA,-0.322
17,CGAAAGGA,0.0281
18,AAAGCACG,-0.0888
19,GCATTCTA,0.11
20,AAAGCGAG,0.0778
21,AAGACCTG,-0.231
22,GCGTGGGA,-0.227
23,CCAAACAC,0.0133
24,AATACCAG,0.12
25,AACCGCTG,-0.084

row,Sequence,PBM E-score
1,ACGTGTCC,-0.23
2,TGCGGGAA,0.159
3,AGTTATCC,0.018
4,CTAGCTGA,-0.0653
5,AAGAGAAA,0.0217
6,AGTAAGAA,0.208
7,GAAATTGA,0.289
8,GCTCAACC,-0.0689
9,GTTAAAGA,0.182
10,AATCAGGC,0.0854
11,CAGTAGCA,-0.0527
12,GATTGAGC,0.133
13,ACCCTCCT,-0.22
14,ATGGCGAG,-0.113
15,CAGCCGTA,-0.106
16,ACGTACGA,-0.182
17,AGTATGGA,0.171
18,CACGATGA,0.123
19,AGCCCGTG,-0.317
20,GGGCCGGA,-0.17
21,GGTGCAAA,-0.00124
22,ACCAGACG,-0.0483
23,ATACCAGA,0.191
24,CCGAAGCG,-0.199
25,AAGGGAAA,0.112

row,Sequence,PBM E-score
1,ACGAGGCC,-0.265
2,GCTTTCAC,-0.168
3,ACTTCCAC,-0.104
4,ATGGTGTG,0.0876
5,AACGGGGG,-0.309
6,AGGTACCA,-0.145
7,AGATCAAC,0.0509
8,ATGTTGCG,0.0418
9,CATACTAG,0.157
10,ATCTAAGC,0.0351
11,CCTGTATC,0.0676
12,ATCCAACA,0.0678
13,GCCGAGTA,-0.121
14,ACTGTGCG,-0.00496
15,ACCTCCGA,-0.0443
16,ATTGTGTG,0.122
17,ATCTACCC,0.0482
18,CCATTACG,-0.14
19,GCCCTCCA,-0.175
20,ACCGGTGA,-0.244
21,CACCCCCG,-0.201
22,CCCACACG,-0.149
23,AGGTTTTG,0.023
24,ACAACTGA,0.144
25,ACAACTCT,0.241

row,Sequence,PBM E-score
1,GAAGCTAC,-0.0159
2,AAATACCA,0.199
3,TGTCCTAA,0.053
4,AAAGCAAT,0.16
5,AACACAAC,0.116
6,GGATGGCA,0.0893
7,TACGTATA,0.115
8,AAGGGACA,-0.121
9,GGCTTACA,0.0224
10,AGAGTATC,-0.049
11,GGGGCGAA,-0.149
12,GTACCGTA,-0.14
13,ACTGACCT,0.0147
14,CAAACGTA,0.12
15,CTCTATCA,-0.0434
16,GATTGGGC,-0.0587
17,GGAAAACA,0.17
18,ATGTTTTG,0.216
19,CAGTACGG,-0.00053
20,AGGCTACC,-0.279
21,CGCTATAC,-0.172
22,GCTTGCCC,-0.303
23,GCGTCAGC,-0.15
24,GTCTCAGA,-0.218
25,CGATAAAC,-0.148

row,Sequence,PBM E-score
1,GATTAATA,0.328
2,TAAAACAA,0.177
3,GGGGAATA,-0.0146
4,ATAACGAC,0.193
5,CCAACGAC,-0.185
6,ACCAGACC,-0.0442
7,GAGAATTA,0.238
8,AGAATCCA,-0.0591
9,ACCTCCGG,-0.0279
10,GATTAGTA,0.0492
11,CGACTCGC,-0.0745
12,AAGATATT,0.258
13,GTATGTTA,0.148
14,AGCTCCCC,-0.281
15,ACATATGT,-0.046
16,ACAGCGGC,-0.215
17,CGATCTGA,-0.0469
18,ACGGTGTC,-0.126
19,CTCTCCAG,-0.325
20,GACCGCTC,-0.184
21,CCGGCTTA,-0.0887
22,AAACCCGT,-0.104
